Source: PubChem BioAssay AID1508623 (National Center for Advancing Translational Sciences (NCATS), 2021)
The campaign covered roughly 48,000 compounds. About 450 (0.94%) were called active. Another 19% or so got no clear call; they are omitted. Calls follow the shape of the dose curve; as a rule, active = well fitted inhibition curve with a large enough effect; inconclusive = small, poorly fitted or top-dose-only effect; inactive = no such curve, though single readings can be large or run the other way. Some of the results follow.

experiment: Primary qHTS for Identification of Small Molecule Inhibitors of Huntingtin Promoter Activity; details: HEK293 HTT promoter firefly luciferase reporter (activity 0% = vehicle and -100% = no light), 24 h; series mostly up to 57.5 µM; activity change, negative = inhibition: at the top concentration; also: nearly all actives have a fitted effect of over 50% in size
Method in brief: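 Luminescence was read after Dual-Glo reagent and a 10 min room-temperature incubation. Values were normalized to vehicle (0% activity) and zero RLU (-100% activity). Reporter HEK293 cells had been exposed to compounds (up to 57.5 uM final) for 24 h.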

Row | Structure (SMILES) | activity change, negative = inhibition
1 | Fc1ccc(CSc2nc(NCc3ccccc3)c3ccccc3n2)cc1 | inactive: -23%
2 | COc1ccc(-c2cc(C(=O)Nc3cccc(O)c3)on2)cc1OC | inactive: 28.3%
3 | COc1ccc(CNC(=O)Cn2c(=O)cc(C)c3c(C)nn(-c4cccc(Cl)c4C)c32)cc1 | inactive: 0.478%
4 | COc1cc(NC(=O)NCCN2CCN(c3ccccc3)CC2)cc(OC)c1OC | inactive: -16.4%
5 | Cc1ccc(N(C)C(=O)CCS(=O)(=O)c2cc3c(cc2Cl)NC(=O)CO3)cc1 | inactive: -8.61%
6 | CCN(CC)c1ccc2cc(-c3nc(-c4ccccc4F)no3)c(=O)oc2c1 | inactive: 42%
7 | Cc1cccc(NC(=O)CSc2nc3c(sc4ccccc43)c(=O)n2CCCC(=O)NC2CCCC2)c1 | inactive: -1.69%
8 | CCc1ccc(NC(=O)Nc2nnc(N(C)C3CCCCC3)s2)cc1 | inactive: -22.7%
9 | CC(=O)c1ccc(NC(=O)Cn2c(=O)nc(-c3ccccc3)c3cc(Cl)ccc32)cc1 | inactive: -19.1%
10 | CCOC(=O)C1CCCN(c2ncnc3c2nnn3C)C1 (configuration not stated) | inactive: -0.447%
11 | COc1cccc(NC(=O)c2oc3ccccc3c2NC(=O)c2cc3ccccc3o2)c1 | inactive: -1.89%
12 | COCCn1c(SCC(=O)c2c[nH]c3ccccc23)nc2cc(C(=O)NC(C)C)ccc2c1=O | inactive: -28.8%
13 | Cc1nc2ccn(Cc3cccnc3)c(=O)c2cc1C(=O)Nc1ccc(F)cc1F | inactive: 0.172%
14 | COCCCNC(=O)c1ccc(C)c(-n2c(C)nc3cccnc32)c1 | inactive: -7.27%
15 | CCOc1ccc(-c2nnc(SCC(=O)c3ccc(Br)cc3)n2-c2ccccc2)cc1 | inactive: -23.6%
16 | CCOc1ccc(CCNC(=O)c2cc3c(s2)-c2c(C)cccc2OC3)cc1 | inactive: -2.28%
17 | O=C(CN1C(=O)CCc2cc(S(=O)(=O)N3CCOCC3)ccc21)NCc1ccc(Cl)cc1 | inactive: -15.8%
18 | Cc1ccc(NC(=O)CSc2nnc(-c3ccc(Br)cc3)o2)c(C)c1 | inactive: -9.65%
19 | CCOC(=O)Cn1c(=O)oc2cc(S(=O)(=O)N3CCC(C(=O)OCC)CC3)ccc21 | inactive: -24.4%
20 | Cc1ccc(OCC(=O)Nc2ccc3nc(SCCOc4ccccc4)sc3c2)cc1 | inactive: -9.25%
21 | COc1ccc(NC(=O)Cn2nnc3sc4c(c3c2=O)CCCC4)cc1 | inactive: -16.9%
22 | Cc1ccc(NC(=O)CN2C(=O)COc3ccc(S(=O)(=O)Nc4ccccc4)cc32)c(C)c1 | inactive: -5.32%
23 | Cc1cc(C)c(NC(=O)CSc2nc3ccncc3[nH]2)c(C)c1 | inactive: -29.4%
24 | Cc1ccc(C2=NC(c3ccccc3)=Nc3ccc(Cl)cc3N2)cc1 | inactive: 34.3%

Row | Structure (SMILES) | activity change, negative = inhibition
25 | COC(=O)c1cc2oc3ccccc3c2n1Cc1c(C)cc(C)cc1C | inactive: -20.6%
26 | COCCCNC(=O)CSc1nc(-c2ccc(OC)c(OC)c2)[nH]c1-c1ccc(F)cc1 | inactive: -12.4%
27 | Cc1cc(C)c2c(=O)cc(C(=O)NCc3ccc(S(N)(=O)=O)cc3)oc2c1 | inactive: 4.43%
28 | CCc1ccc(NC(=O)CCc2nnc3n(C)c(=O)c4sccc4n23)cc1 | inactive: -14.7%
29 | COc1cc2ccccc2cc1C(=O)Nc1cccc(-c2nc3cc(C)ccc3o2)c1C | inactive: -0.803%
30 | Cc1nn2c(=O)cc(COC(=O)COc3ccc(F)cc3)nc2s1 | inactive: -6.74%
31 | Cc1cccc(NC(=O)C2CCCN(S(=O)(=O)c3ccc(Br)s3)C2)c1 (configuration not stated) | inactive: 14.5%
32 | Cc1nc2cccnc2n1-c1cccc(C(=O)NCCc2ccc(S(N)(=O)=O)cc2)c1 | inactive: 1.03%
33 | CCCCCn1c(=O)[nH]c2cc(C(=O)Nc3ccc(F)c(F)c3)ccc2c1=O | inactive: -1.51%
34 | Cc1cc(SCC(=O)NCc2ccc(Cl)cc2)nc(=O)[nH]1 | inactive: -14.2%
35 | CCN(CC)CCOC(=O)c1ccc(NC(=O)c2cc3c(=O)n(CC)c4ccccc4c3s2)cc1 | inactive: -5.87%
36 | Cc1ccc(S(=O)(=O)N2CCC(C(=O)NCc3ccccc3Cl)CC2)cc1 | inactive: -17.8%
37 | CCN1CCN(Cc2c(O)ccc3c(C)c(-c4ccc(OC)cc4)c(=O)oc23)CC1 | inactive: -22.7%
38 | Cc1ccccc1C(=O)Nc1cccc(OCc2cc(=O)n3c(C)csc3n2)c1 | inactive: 13.7%
39 | COc1ccc(NC(=O)C2=CC(c3ccco3)=NS(=O)(=O)N2C)cc1 | inactive: -21%
40 | Oc1cc(O)cc(C=Cc2ccc(O)c(O)c2)c1 | inactive: 13.2%
41 | Cc1ccc(C)c(NC(=O)CN2CCSc3ccc(S(=O)(=O)N4CCCC4)cc32)c1 | inactive: -33.4%
42 | COc1ccccc1N1CCN(c2ncnc3c2nnn3C)CC1 | inactive: 18.2%
43 | CCOC(=O)c1oc2ccc(S(=O)(=O)n3nc(-c4ccc(C)cc4)cc3N)cc2c1C | inactive: -11.8%
44 | COc1ccc(NC(=O)C2CCN(S(=O)(=O)c3cccc(-c4noc(C)n4)c3)CC2)cc1OC | inactive: -29.8%
45 | CC(C)c1ccc(CN(C(=O)c2cc3ccccc3oc2=O)C2CCS(=O)(=O)C2)cc1 (configuration not stated) | inactive: -3.66%
46 | CCOCCn1ccc2c(OCC(=O)Nc3ccc(C(N)=O)cc3)cccc2c1=O | inactive: 0%
47 | COc1ccc(C2NC(=O)N(C)C3=C2C(=O)N(c2ccc(Br)cc2)C3)cc1 (configuration not stated) | inactive: -18.8%
